What is called % Inhibition is the drop in the measured response relative to a control, in per cent.

In all, about 150,000 compounds went through this assay and about 540 (0.36%) showed an effect of 50% or more. Some of the results follow.

Consider 43 compounds from ChEMBL document CHEMBL4888484, “Replenishing the malaria drug discovery pipeline: Screening and hit evaluation of the MMV Hit Generation Library 1 (HGL1) against asexual blood stage Plasmodium falciparum ,using a nano luciferase reporter read-out” (2022).

The test system of the assay is Plasmodium falciparum. The assay is described as follows: Primary screen in NF54 nanoGlo assay, in single point, at 2uM, 72h; a lower Z score goes with more inhibition. Particulars: timepoint 72 hour. Type of assay: functional, Erythrocyte.
As for `Cc1cc2nc(-c3c(C(=O)N4CCOCC4)nc4ccccn34)[nH]c2cc1C`, the “% Inhibition” value is listed as -9% and the Z score turned out to be 1.1.
For `C=CCN(Cc1ccccc1OC)S(=O)(=O)N1CCCC1`, in that order: -15% and 2.82.
For `COc1ccc2c(C)c(C(=O)N3CCc4[nH]nc(C5CCC5)c4C3)oc2c1`, in that order: -5% and 0.71.
For `C#CCCC1(CCC(=O)N2CCOCC23CCC3)N=N1`, in that order: -13% and 1.65.
With `CC(C)c1ccc(NC(=O)c2ccc3c(c2)N(S(C)(=O)=O)CC3)cc1`, the “% Inhibition” value stood at 0% and the Z score is given as 0.02.
Taken in the same sequence, the figures for `Cc1cc(C)nc(-n2nc(C)c(CC(=O)Nc3ccccc3N3CCC(C(N)=O)CC3)c2C)n1` were 6% and -0.79.
Taken in the same sequence, the figures for `CC(C)S(=O)(=O)N1CCC(c2nnc3n2CCN(C(=O)c2cscn2)C3)CC1` were -5% and 0.78.
On to `CC1(C)Cc2cc(S(=O)(=O)Nc3cncc(N4CCCC4)n3)ccc2O1`, for which the “% Inhibition” value is on record as -1% and the Z score was determined as 0.14.
`Cc1noc(C)c1CC(=O)N1CC2(C[C@H](N(C)Cc3ccccc3)CO2)C1`: the “% Inhibition” value was -16% and the Z score is listed as 2.49.
Taken in the same sequence, the figures for `O=C(NC1CC1)C1CCN(c2nc3ccc(-c4ccccc4)nc3s2)CC1` were -11% and 1.22.
Regarding `O=C(NS(=O)(=O)CC1CCCCC1)C1CCC(C(F)(F)F)CC1` (stereo unspecified), the “% Inhibition” value was -5% and the Z score was determined as 0.62.
For the compound `CCc1nc(-c2cc(NC(=O)Cc3cccc(F)c3)c(C)s2)no1`, the “% Inhibition” value is on record as -1% and the Z score is given as 0.07.
In the case of `O=S(=O)(NCCc1n[nH]c(-c2ccc(Cl)cc2)n1)c1ccc(C2CCCCC2)cc1`, the “% Inhibition” value was -8% and the Z score is on record as 1.42.
Taken in the same sequence, the figures for `CCCC(=O)N[C@H]1CCO[C@@H]1C1CCN(C(=O)OC(C)(C)C)CC1` were 0% and 0.08.
Taken in the same sequence, the figures for `C#CCNC(=O)CNS(=O)(=O)c1c(F)cccc1Cl` were -12% and 1.69.
For `CCN(CC)CCNC(=O)c1cnn(-c2nccc(-c3cccs3)n2)c1COC`, in that order: -1% and 0.28.
On to `CC(NCC(=O)NCCNC(=O)CNC(C)c1ccc(F)c(F)c1)c1ccc(F)c(F)c1` (stereo unspecified), for which the “% Inhibition” value is -13% and the Z score is recorded as 1.29.
For `CCS(=O)(=O)c1c(C(=O)c2ccccc2)c2ccc(C(N)=O)cn2c1S(=O)(=O)CC`, in that order: -8% and 0.99.
Consider `CC[C@H](C)C(=O)N(C)Cc1sccc1C`, for which the “% Inhibition” value turned out to be 9% and the Z score is -1.29.
For `C[C@H]1c2ccccc2CN1C(=O)c1csc(=O)[nH]1`, in that order: -18% and 2.48.
Taken in the same sequence, the figures for `Cc1nn(C)c(C)c1CNc1cccc2nsnc12` were 0% and 0.03.
For `O=C(Nc1cccc(Br)c1Cl)[C@@H]1CCCO1`, in that order: 5% and -0.53.
For the compound `O=C(NCC1(O)Cc2ccccc2C1)C(=O)Nc1cccc(N2CCCC2=O)c1`, the “% Inhibition” value was 5% and the Z score is -0.69.
Consider `Cc1[nH]ncc1C(=O)N1CCC(C)C1CO` (stereo unspecified), for which the “% Inhibition” value is recorded as -5% and the Z score was determined as 0.53.
Taken in the same sequence, the figures for `CCOc1ncc(C(=O)N2CC(C)C(C)C2)cc1Cl` (stereo unspecified) were -2% and 0.19.
For `CCC[C@H](NS(=O)(=O)N(C)C1CCOCC1)C1CCCCC1`, in that order: -3% and 0.32.
Taken in the same sequence, the figures for `CC(=O)c1c(C)nn(C(=O)c2ccco2)c1C` were 3% and -0.39.
With `CN(C(=O)c1ccc2[nH]ccc2c1)C1CCCC1S(C)(=O)=O` (stereo unspecified), the “% Inhibition” value is given as -2% and the Z score was found to be 0.21.
Take `O=C(Nc1nnc(NC(=O)c2ccc(F)cc2)[nH]1)c1ccc(F)cc1`: the “% Inhibition” value is on record as 2% and the Z score is given as -0.29.
Consider `Cc1ccc(F)cc1OCc1ncnn1C`, for which the “% Inhibition” value was 0% and the Z score amounted to 0.
For `CC1CN(CC2CCCO2)CCC1NCCOc1ccc(F)cc1F` (stereo unspecified), in that order: 3% and -0.43.
Taken in the same sequence, the figures for `Cc1nnccc1NC(=O)N1CCC[C@@H]1CCC1CCCCC1` were 10% and -1.21.
Taken in the same sequence, the figures for `O=C1C[C@H](c2cc(F)ccc2F)c2c(-c3ccc(Cl)cc3)n[nH]c2N1` were 7% and -0.86.
For the compound `CCCC(=O)N(Cc1[nH]c(C)c(C(=O)OCC)c1C)C1CCCCC1`, the “% Inhibition” value is -14% and the Z score came to 1.85.
For `CCOC(=O)C(C)(C)c1csc([C@H](C)OCC)n1`, in that order: -3% and 0.45.
For `C[C@H](O)C1CN(Cc2cc(Cl)ccc2Br)C1`, in that order: 6% and -0.87.
Take `Cc1cccc(C)c1OCC(=O)Nc1ccc2c(c1)N(S(N)(=O)=O)CC2`: the “% Inhibition” value was 4% and the Z score was -0.58.
As to `CC1=NN([C@H](C#N)c2ccc(N(C)C)cc2)C(C)(C)C1`, the “% Inhibition” value is on record as -2% and the Z score is 0.43.
Taken in the same sequence, the figures for `CCc1csc(CCNC(=O)N2C[C@H](O)[C@@H](N3CCCC3)C2)n1` were -19% and 2.48.
For the compound `CCS(=O)(=O)C1CN(S(=O)(=O)CCC(F)(F)F)C1`, the “% Inhibition” value is given as -4% and the Z score worked out at 0.67.
Taken in the same sequence, the figures for `C[C@H](Oc1ncccc1C(=O)NCC1(CCO)CC1)C(F)(F)F` were 2% and -0.3.
For `Cc1ncoc1C(=O)N1CCN(CC2C[C@@H]3C=C[C@H]2C3)CC1` (stereo partly specified), in that order: -4% and 0.55.
For `CCc1nnc(NC(=O)C2(C)COC(c3ccccc3)OC2)s1` (stereo unspecified), in that order: 30% and -0.4.
